# Laboratory results published in the supplement of paper PMC8728848.
# The other results are listed elsewhere or left out.
# B1: OrysaEULS2 (Oryza sativa) (protein)
# chain: MVYCRANPNYAMTARNGAVVLAPANPKDEYQHWIKDMRWSTSIKDEEGYPAFALVNKATGQAIKHSLGQSHPVRLVPYNPEVMDESVLWTESRDVGNGFRCIRMVNNIYLNFDAFHGDKYHGGVRDGTDIVLWKWCEGDNQRWKIQPYYILEQKLISEEDLNSAVDHHHHHH
# Experiments:
# Test in all cases: glycan array binding signal (z-score within array); higher = stronger binding
# Conditions in all cases: glycan notation: IUPAC condensed, linker removed
# [1] = target: Gal(b1-3)[Fuc(a1-4)]GlcNAc(b1-2)Man
# Summary of the method: (§1)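 Columns mapping to the same glycan were averaged after glycan names were converted to IUPAC-condensed notation. The data come from 3228 arrays in the Consortium for Functional Glycomics database, limited to those with an available protein sequence. Binding is reported as a within-array Z-score averaged across arrays of one protein sequence and across linkers.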
# [2] = target: Gal(b1-3)[Fuc(a1-4)]GlcNAc(b1-2)Man(a1-3)[Gal(b1-3)[Fuc(a1-4)]GlcNAc(b1-2)Man(a1-6)]Man(b1-4)GlcNAc(b1-4)[Fuc(a1-6)]GlcNAc
# Summary of the method: as §1
# [3] = target: Gal(b1-3)[Fuc(a1-4)]GlcNAc(b1-3)Gal(b1-3)[Fuc(a1-4)]GlcNAc
# Summary of the method: as §1
# [4] = target: Gal(b1-3)[Fuc(a1-4)]GlcNAc(b1-3)Gal(b1-4)GlcNAc
# Summary of the method: as §1
# [5] = target: Gal(b1-3)[Fuc(a1-4)]GlcNAc(b1-3)Gal(b1-4)[Fuc(a1-3)]GlcNAc
# Summary of the method: as §1
# [6] = target: Gal(b1-3)[Fuc(a1-4)]GlcNAc(b1-6)GalNAc
# Summary of the method: as §1
# [7] = target: Gal(b1-3)[GlcNAc(b1-6)]GalNAc
# Summary of the method: as §1
# [8] = target: Gal(b1-3)[Neu5Ac(a2-6)]GalNAc
# Summary of the method: as §1
# [9] = target: Gal(b1-3)[Neu5Ac(a2-6)]GlcNAc(b1-4)Gal(b1-4)Glc
# Summary of the method: as §1
# [10] = target: Gal(b1-3)[Neu5Ac(a2-6)]GlcNAc(b1-6)Gal(b1-4)Glc
# Summary of the method: as §1
# [11] = target: Gal(b1-3)[Neu5Ac(b2-6)]GalNAc
# Summary of the method: as §1
# [12] = target: Gal(b1-4)Gal
# Summary of the method: as §1
# [13] = target: Gal(b1-4)GalNAc(a1-3)[Fuc(a1-2)]Gal(b1-4)GlcNAc
# Summary of the method: as §1
# [14] = target: Gal(b1-4)GalNAc(b1-3)[Fuc(a1-2)]Gal(b1-4)GlcNAc
# Summary of the method: as §1
# [15] = target: Gal(b1-4)Glc
# Summary of the method: as §1
# [16] = target: Gal(b1-4)Glc6S
# Summary of the method: as §1
# [17] = target: Gal(b1-4)GlcNAc
# Summary of the method: as §1
# [18] = target: Gal(b1-4)GlcNAc(a1-6)Gal(b1-4)GlcNAc
# Summary of the method: as §1
# [19] = target: Gal(b1-4)GlcNAc(b1-2)Man
# Summary of the method: as §1
# [20] = target: Gal(b1-4)GlcNAc(b1-2)Man(a1-3)Man(b1-4)GlcNAc(b1-4)GlcNAc
# Summary of the method: as §1
# [21] = target: Gal(b1-4)GlcNAc(b1-2)Man(a1-3)[Gal(b1-4)GlcNAc(b1-2)Man(a1-6)]Man(b1-4)GlcNAc(b1-4)GlcNAc
# Summary of the method: as §1
# [22] = target: Gal(b1-4)GlcNAc(b1-2)Man(a1-3)[Gal(b1-4)GlcNAc(b1-2)Man(a1-6)]Man(b1-4)GlcNAc(b1-4)[Fuc(a1-6)]GlcNAc
# Summary of the method: as §1
# [23] = target: Gal(b1-4)GlcNAc(b1-2)Man(a1-3)[Gal(b1-4)GlcNAc(b1-2)Man(a1-6)][Gal(b1-4)GlcNAc(b1-4)]Man(b1-4)GlcNAc(b1-4)[Fuc(a1-6)]GlcNAc
# Summary of the method: as §1
# [24] = target: Gal(b1-4)GlcNAc(b1-2)Man(a1-3)[Gal(b1-4)GlcNAc(b1-2)Man(a1-6)][GlcNAc(b1-4)]Man(b1-4)GlcNAc(b1-4)[Fuc(a1-6)]GlcNAc
# Summary of the method: as §1
# [25] = target: Gal(b1-4)GlcNAc(b1-2)Man(a1-3)[Gal(b1-4)GlcNAc(b1-2)][GlcNAc(b1-4)]Man(b1-4)GlcNAc(b1-4)GlcNAc
# Summary of the method: as §1
# [26] = target: Gal(b1-4)GlcNAc(b1-2)Man(a1-3)[GlcNAc(b1-2)Man(a1-6)]Man(b1-4)GlcNAc(b1-4)GlcNAc
# Summary of the method: as §1
# [27] = target: Gal(b1-4)GlcNAc(b1-2)Man(a1-3)[GlcNAc(b1-4)][Gal(b1-4)GlcNAc(b1-2)Man(a1-6)]Man(b1-4)GlcNAc(b1-4)GlcNAc
# Summary of the method: as §1
# [28] = target: Gal(b1-4)GlcNAc(b1-2)Man(a1-3)[Man(a1-6)]Man(b1-4)GlcNAc(b1-4)GlcNAc
# Summary of the method: as §1
# [29] = target: Gal(b1-4)GlcNAc(b1-2)Man(a1-6)Man(b1-4)GlcNAc(b1-4)GlcNAc
# Summary of the method: as §1
# [30] = target: Gal(b1-4)GlcNAc(b1-2)Man(a1-6)[GlcNAc(b1-2)Man(a1-3)]Man(b1-4)GlcNAc(b1-4)GlcNAc
# Summary of the method: as §1
# [31] = target: Gal(b1-4)GlcNAc(b1-2)Man(a1-6)[Man(a1-3)]Man(b1-4)GlcNAc(b1-4)GlcNAc
# Summary of the method: as §1
# [32] = target: Gal(b1-4)GlcNAc(b1-2)[Gal(b1-4)GlcNAc(b1-4)]Man(a1-3)[Gal(b1-4)GlcNAc(b1-2)Man(a1-6)]Man(b1-4)GlcNAc(b1-4)GlcNAc
# Summary of the method: as §1
# [33] = target: Gal(b1-4)GlcNAc(b1-2)[Gal(b1-4)GlcNAc(b1-4)]Man(a1-3)[Gal(b1-4)GlcNAc(b1-2)[Gal(b1-4)GlcNAc(b1-6)]Man(a1-6)]Man(b1-4)GlcNAc(b1-4)GlcNAc
# Summary of the method: as §1
# [34] = target: Gal(b1-4)GlcNAc(b1-2)[Gal(b1-4)GlcNAc(b1-4)]Man(a1-3)[GlcNAc(b1-4)][Gal(b1-4)GlcNAc(b1-2)Man(a1-6)]Man(b1-4)GlcNAc(b1-4)GlcNAc
# Summary of the method: as §1
# [35] = target: Gal(b1-4)GlcNAc(b1-2)[Gal(b1-4)GlcNAc(b1-4)]Man(a1-3)[GlcNAc(b1-4)][Gal(b1-4)GlcNAc(b1-2)[Gal(b1-4)GlcNAc(b1-6)]Man(a1-6)]Man(b1-4)GlcNAc(b1-4)GlcNAc
# Summary of the method: as §1
# [36] = target: Gal(b1-4)GlcNAc(b1-2)[Gal(b1-4)GlcNAc(b1-4)]Man(a1-3)[GlcNAc(b1-4)][Gal(b1-4)GlcNAc(b1-2)[Gal(b1-4)GlcNAc(b1-6)]Man(a1-6)]Man(b1-4)GlcNAc(b1-4)[Fuc(a1-6)]GlcNAc
# Summary of the method: as §1
# [37] = target: Gal(b1-4)GlcNAc(b1-2)[Gal(b1-4)GlcNAc(b1-6)]Man(a1-6)[Gal(b1-4)GlcNAc(b1-2)Man(a1-3)]Man(b1-4)GlcNAc(b1-4)GlcNAc
# Summary of the method: as §1
# [38] = target: Gal(b1-4)GlcNAc(b1-2)[Gal(b1-4)GlcNAc(b1-6)]Man(a1-6)[Gal(b1-4)GlcNAc(b1-2)Man(a1-3)]Man(b1-4)GlcNAc(b1-4)[Fuc(a1-6)]GlcNAc
# Summary of the method: as §1
# [39] = target: Gal(b1-4)GlcNAc(b1-2)[Gal(b1-4)GlcNAc(b1-6)]Man(a1-6)[GlcNAc(b1-4)][Gal(b1-4)GlcNAc(b1-2)Man(a1-3)]Man(b1-4)GlcNAc(b1-4)GlcNAc
# Summary of the method: as §1
# [40] = target: Gal(b1-4)GlcNAc(b1-2)[Gal(b1-4)GlcNAc(b1-6)]Man(a1-6)[GlcNAc(b1-4)][Gal(b1-4)GlcNAc(b1-2)[Gal(b1-4)GlcNAc(b1-4)]Man(a1-3)]Man(b1-4)GlcNAc(b1-4)[Fuc(a1-6)]GlcNAc
# Summary of the method: as §1
# [41] = target: Gal(b1-4)GlcNAc(b1-3)Gal(b1-3)GalNAc
# Summary of the method: as §1
# [42] = target: Gal(b1-4)GlcNAc(b1-3)Gal(b1-3)GlcNAc
# Summary of the method: as §1
# [43] = target: Gal(b1-4)GlcNAc(b1-3)Gal(b1-4)Glc
# Summary of the method: as §1
# [44] = target: Gal(b1-4)GlcNAc(b1-3)Gal(b1-4)GlcNAc
# Summary of the method: as §1
# [45] = target: Gal(b1-4)GlcNAc(b1-3)Gal(b1-4)GlcNAc(b1-2)Man(a1-3)[Gal(b1-4)GlcNAc(b1-3)Gal(b1-4)GlcNAc(b1-2)Man(a1-6)]Man(b1-4)GlcNAc(b1-4)GlcNAc
# Summary of the method: as §1
binder,measurement,setting,value
B1,glycan array binding signal (z-score),[1],-0.186
same,glycan array binding signal (z-score),[2],-0.105
same,glycan array binding signal (z-score),[3],-0.217
same,glycan array binding signal (z-score),[4],-0.188
same,glycan array binding signal (z-score),[5],-0.222
same,glycan array binding signal (z-score),[6],-0.086
same,glycan array binding signal (z-score),[7],-0.22
same,glycan array binding signal (z-score),[8],-0.205
same,glycan array binding signal (z-score),[9],-0.274
same,glycan array binding signal (z-score),[10],-0.179
same,glycan array binding signal (z-score),[11],-0.216
same,glycan array binding signal (z-score),[12],-0.177
same,glycan array binding signal (z-score),[13],-0.199
same,glycan array binding signal (z-score),[14],-0.187
same,glycan array binding signal (z-score),[15],-0.197
same,glycan array binding signal (z-score),[16],-0.193
same,glycan array binding signal (z-score),[17],-0.229
same,glycan array binding signal (z-score),[18],-0.203
same,glycan array binding signal (z-score),[19],-0.177
same,glycan array binding signal (z-score),[20],1.23
same,glycan array binding signal (z-score),[21],1.17
same,glycan array binding signal (z-score),[22],0.251
same,glycan array binding signal (z-score),[23],-0.254
same,glycan array binding signal (z-score),[24],-0.228
same,glycan array binding signal (z-score),[25],-0.182
same,glycan array binding signal (z-score),[26],1.37
same,glycan array binding signal (z-score),[27],-0.172
same,glycan array binding signal (z-score),[28],1.06
same,glycan array binding signal (z-score),[29],-0.181
same,glycan array binding signal (z-score),[30],0.971
same,glycan array binding signal (z-score),[31],5.65
same,glycan array binding signal (z-score),[32],-0.191
same,glycan array binding signal (z-score),[33],-0.21
same,glycan array binding signal (z-score),[34],-0.213
same,glycan array binding signal (z-score),[35],-0.203
same,glycan array binding signal (z-score),[36],-0.176
same,glycan array binding signal (z-score),[37],1.53
same,glycan array binding signal (z-score),[38],0.035
same,glycan array binding signal (z-score),[39],-0.158
same,glycan array binding signal (z-score),[40],-0.185
same,glycan array binding signal (z-score),[41],-0.255
same,glycan array binding signal (z-score),[42],-0.176
same,glycan array binding signal (z-score),[43],-0.186
same,glycan array binding signal (z-score),[44],-0.192
same,glycan array binding signal (z-score),[45],0.706
